# Measured values reported in paper PMC4336329 (PLoS ONE, 2015).
# Screen size: about 310,000 compounds; about 2,200 (0.71%) showed an effect of 50% or more. Effects have a minus sign here. This is one part of the list.
# Target: human ether-à-go-go-related gene (hERG) potassium channel (human, UniProt Q12809)
# Assay: primary screen, population patch clamp on CHO cells stably expressing hERG
# human ether-à-go-go-related gene (hERG) potassium channel, sequence (Q12809 whole entry, looked up): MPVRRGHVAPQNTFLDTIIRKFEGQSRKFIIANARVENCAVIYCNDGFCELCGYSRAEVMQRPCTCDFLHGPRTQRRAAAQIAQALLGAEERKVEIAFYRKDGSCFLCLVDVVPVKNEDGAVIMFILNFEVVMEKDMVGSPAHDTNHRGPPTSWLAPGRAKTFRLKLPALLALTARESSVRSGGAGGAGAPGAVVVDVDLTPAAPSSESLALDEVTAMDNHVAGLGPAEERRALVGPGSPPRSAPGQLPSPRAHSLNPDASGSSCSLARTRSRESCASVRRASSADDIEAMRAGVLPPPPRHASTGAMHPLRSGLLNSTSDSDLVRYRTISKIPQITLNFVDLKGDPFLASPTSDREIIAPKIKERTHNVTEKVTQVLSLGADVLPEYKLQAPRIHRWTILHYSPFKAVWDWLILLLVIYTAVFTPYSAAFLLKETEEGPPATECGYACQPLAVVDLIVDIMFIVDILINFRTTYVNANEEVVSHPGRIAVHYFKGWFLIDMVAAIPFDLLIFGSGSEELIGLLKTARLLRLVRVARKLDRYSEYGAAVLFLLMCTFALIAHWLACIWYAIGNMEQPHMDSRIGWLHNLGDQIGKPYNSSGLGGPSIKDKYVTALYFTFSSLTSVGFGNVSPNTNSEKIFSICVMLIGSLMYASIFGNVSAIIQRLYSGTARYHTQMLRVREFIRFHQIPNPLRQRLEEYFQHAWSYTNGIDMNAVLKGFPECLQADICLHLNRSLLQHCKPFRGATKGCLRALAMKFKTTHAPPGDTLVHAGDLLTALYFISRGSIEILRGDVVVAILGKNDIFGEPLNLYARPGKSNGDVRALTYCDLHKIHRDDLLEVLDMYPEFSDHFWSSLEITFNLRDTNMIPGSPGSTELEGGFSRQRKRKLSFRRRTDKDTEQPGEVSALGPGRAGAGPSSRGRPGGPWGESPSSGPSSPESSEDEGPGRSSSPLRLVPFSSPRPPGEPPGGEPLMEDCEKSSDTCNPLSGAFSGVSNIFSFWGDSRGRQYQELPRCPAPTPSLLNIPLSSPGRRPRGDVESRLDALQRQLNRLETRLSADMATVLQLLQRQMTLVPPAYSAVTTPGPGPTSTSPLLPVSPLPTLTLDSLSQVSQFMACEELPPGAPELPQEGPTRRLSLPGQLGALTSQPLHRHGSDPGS
row,Compound,"hERG current change (%, negative = inhibition) at 1uM [%]"
1,COc1ccc(C(C#N)C2(C)OCCO2)cc1OC (stereo not drawn),6.46
2,Cc1onc(-c2ccccc2)c1C(=O)N1CCCC(C(F)(F)F)C1 (stereo not drawn),-6.53
3,c1ccc(CC2CCN(c3nc4ccccc4n4nnnc34)CC2)cc1,17.2
4,O=C(C1CCC(=O)N1Cc1cccnc1)N1CCN(c2ccc(F)cc2)CC1 (stereo not drawn),10.5
5,CC(/C=N/NC(=O)Cc1cc(=O)[nH][nH]1)=C\c1ccccc1,8.24
6,CN(CC(=O)NCCC1=CCCCC1)S(=O)(=O)c1ccc2c(c1)c(=O)n(C)c(=O)n2C,-20.6
7,Cc1c(S(=O)(=O)N2CCOCC2)c(=O)n(C)c(=O)n1C,0.31
8,Cn1nc([N+](=O)[O-])nc1Oc1ccc2ccccc2c1,0.721
9,Cc1ccccc1NC(=S)NC(=O)Cc1ccc(Cl)cc1,11.9
10,O=C(COC(=O)CCN1C(=O)c2cccc([N+](=O)[O-])c2C1=O)NC1CCS(=O)(=O)C1 (stereo not drawn),2.61
11,COc1ccc(NC(=O)c2ccc(COCC(F)(F)F)cc2)cc1OC,10.5
12,CCOC(=O)C(NC(C)=O)(OCc1ccc(F)cc1)C(F)(F)F (stereo not drawn),10.4
13,CCCCn1c(SC(C)C(N)=O)nc2cc(C(=O)OC)ccc2c1=O (stereo not drawn),3.35
14,COc1ccc(OC)c(NC(=O)CCN2CCN(c3ccccc3OC)CC2)c1,9.26
15,CCOc1ccccc1/C=C/c1cc(C(=O)O)c2ccccc2n1,13.4
16,Cc1noc(C)c1CSCC(=O)N(C)CC(=O)Nc1ccccc1Br,17.4
17,Cc1cc(=O)[nH]c(SCC(=O)Nc2cccc(S(=O)(=O)N3CCOCC3)c2)n1,9.94
18,CCc1ccc(S(=O)(=O)Nc2cc(SCC(=O)O)c(O)c3ccccc23)cc1,15
19,Cc1cccc(NC(=O)NNC(=O)c2ccc(C)c([N+](=O)[O-])c2)c1,3.38
20,CCOC(=O)C1CCN(CC(=O)Nc2c(C(=O)OC)n(C)c3cccc(C)c23)CC1,-3.15
21,COc1ccc(C(=O)Nn2c(SCC(=O)NCc3ccccc3)nc3ccccc3c2=O)cc1,-5.21
22,CSc1nc2ccc(NC(=O)c3ccc(=O)[nH]c3)cc2s1,10.8
23,O=C(CCC(=O)c1ccccc1)NC1CCCN(Cc2ccccc2F)C1 (stereo not drawn),9.81
24,N#Cc1c(SCC(=O)Nc2cccc(C(F)(F)F)c2)sc2c(O)cc(=O)[nH]c12,8.39
